About 14,000 (4.5%) of roughly 310,000 compounds showed an effect of 50% or more. Effects have a minus sign here. The list shows a part of the results.
These molecules were tested against human ether-à-go-go-related gene (hERG) potassium channel (human, UniProt Q12809) (assay: primary screen, population patch clamp on CHO cells stably expressing hERG).
Chain of human ether-à-go-go-related gene (hERG) potassium channel (Q12809 whole entry, looked up): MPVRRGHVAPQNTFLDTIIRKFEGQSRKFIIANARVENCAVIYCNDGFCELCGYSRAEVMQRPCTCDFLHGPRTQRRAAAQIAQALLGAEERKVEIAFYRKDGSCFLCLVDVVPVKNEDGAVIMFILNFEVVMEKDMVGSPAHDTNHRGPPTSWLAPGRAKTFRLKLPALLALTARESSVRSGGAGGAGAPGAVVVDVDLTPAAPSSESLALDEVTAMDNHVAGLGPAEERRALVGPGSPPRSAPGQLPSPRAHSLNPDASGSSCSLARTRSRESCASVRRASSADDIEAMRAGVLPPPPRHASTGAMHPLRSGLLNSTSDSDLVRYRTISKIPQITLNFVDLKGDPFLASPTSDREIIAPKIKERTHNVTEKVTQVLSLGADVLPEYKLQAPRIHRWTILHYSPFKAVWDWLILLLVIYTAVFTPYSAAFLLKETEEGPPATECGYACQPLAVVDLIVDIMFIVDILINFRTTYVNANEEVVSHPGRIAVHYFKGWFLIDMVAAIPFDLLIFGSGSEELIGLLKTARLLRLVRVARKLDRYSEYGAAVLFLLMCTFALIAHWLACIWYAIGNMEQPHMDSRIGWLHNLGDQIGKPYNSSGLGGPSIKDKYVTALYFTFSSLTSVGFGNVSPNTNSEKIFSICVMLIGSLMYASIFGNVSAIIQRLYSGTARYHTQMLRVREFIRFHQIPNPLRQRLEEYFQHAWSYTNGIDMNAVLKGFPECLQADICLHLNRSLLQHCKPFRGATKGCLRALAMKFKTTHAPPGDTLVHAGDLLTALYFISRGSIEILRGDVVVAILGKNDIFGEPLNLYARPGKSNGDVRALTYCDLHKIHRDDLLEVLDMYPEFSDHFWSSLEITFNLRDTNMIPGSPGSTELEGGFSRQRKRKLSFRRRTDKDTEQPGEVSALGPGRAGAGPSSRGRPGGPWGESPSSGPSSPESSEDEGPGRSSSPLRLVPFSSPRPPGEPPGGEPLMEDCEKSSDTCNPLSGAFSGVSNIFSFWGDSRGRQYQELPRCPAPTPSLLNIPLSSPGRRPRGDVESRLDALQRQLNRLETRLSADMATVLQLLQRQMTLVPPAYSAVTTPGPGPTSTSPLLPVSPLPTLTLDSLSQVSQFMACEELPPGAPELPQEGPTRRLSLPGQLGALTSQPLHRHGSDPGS
In the case of `COc1ccc(/C=N/n2c(=O)[nH]c3c([nH]c4ccc(F)cc43)c2=O)cc1CN1CCCCC1`, the “hERG current change (%, negative = inhibition) at 10uM” value was -19.1%.
In the case of `CN1C(C(=O)c2ccccc2)=C(N)c2ccccc2S1(=O)=O`, the “hERG current change (%, negative = inhibition) at 10uM” value was 11.4%.
For `COc1cc(C(=O)Nc2ccccc2-c2nnn(CC(N)=O)n2)cc(OC)c1OC`, the “hERG current change (%, negative = inhibition) at 10uM” value was 7.35%.
`Cc1ccccc1NC(=O)COC(=O)CN1C(=O)NC(C)(C)C1=O` was tested, and the “hERG current change (%, negative = inhibition) at 10uM” value was 0.057%.
`CC(C)Oc1cccc(C(=O)NC(=S)Nc2ccc(Cl)c(C(=O)O)c2)c1` was tested, and the “hERG current change (%, negative = inhibition) at 10uM” value was 3.07%.
For `O=C(CSc1nnc(-c2cccnc2)n1Cc1ccco1)c1ccc(Br)cc1`, the “hERG current change (%, negative = inhibition) at 10uM” value was -63.8%.
With `CC(SCc1ccccc1)C(=O)Nc1ccc(F)cc1` (stereo not shown) the “hERG current change (%, negative = inhibition) at 10uM” value was -2.13%.
`CCN(C(=O)c1cc2cccc(OC)c2oc1=O)c1ccccc1` was tested, and the “hERG current change (%, negative = inhibition) at 10uM” value was 10.4%.
In the case of `O=C(CCl)NCCN1C(=O)S/C(=C\c2cccnc2)C1=O`, the “hERG current change (%, negative = inhibition) at 10uM” value was 26.1%.
In the case of `NC(=O)c1ccc(/C=N/O)nc1`, the “hERG current change (%, negative = inhibition) at 10uM” value was 21.6%.
`Nc1nc(Cl)nc(N(c2ccccc2)c2ccccc2)n1` was tested, and the “hERG current change (%, negative = inhibition) at 10uM” value was -2.83%.
In the case of `Cc1ccc(C(=O)Nc2c(C(=O)N3CCOCC3)cnn2-c2ccccc2)cc1`, the “hERG current change (%, negative = inhibition) at 10uM” value was -3.23%.
With `CCOC(=O)c1cnc2c(-c3ccc(Cl)cc3)cnn2c1C` the “hERG current change (%, negative = inhibition) at 10uM” value was 13.8%.
With `CN(C(=O)CN1C(=O)c2cccc(N)c2C1=O)C1CCCCC1` the “hERG current change (%, negative = inhibition) at 10uM” value was 12%.
With `O=C(Nc1ccccc1-c1nnc(SCc2ccccc2)o1)c1ccccc1` the “hERG current change (%, negative = inhibition) at 10uM” value was 0.444%.
With `CSc1ccc(-c2nc3cnccn3c2Nc2ccc3c(c2)OCO3)cc1` the “hERG current change (%, negative = inhibition) at 10uM” value was -10.6%.
For `COC(=O)c1cc(C(=O)Nn2cnnc2)cc([N+](=O)[O-])c1`, the “hERG current change (%, negative = inhibition) at 10uM” value was 16.3%.
For `CCCCn1c(N)c(N(CCOC)C(=O)c2ccc(N3CCCC3)c([N+](=O)[O-])c2)c(=O)[nH]c1=O`, the “hERG current change (%, negative = inhibition) at 10uM” value was 7.67%.
In the case of `O=C(Cn1cc(F)c(=O)[nH]c1=O)NCCO`, the “hERG current change (%, negative = inhibition) at 10uM” value was 6.95%.
In the case of `Cc1ccc(C2N=C(N)Nc3nc(=O)c4ccccc4n32)cc1` (stereo not shown), the “hERG current change (%, negative = inhibition) at 10uM” value was 11.1%.
For `CCOC(=O)C1=C(O)c2ccccc2C(=O)/C1=C\c1ccc(CC)cc1`, the “hERG current change (%, negative = inhibition) at 10uM” value was -0.249%.
With `O=C(N/N=C/c1ccc(Cl)c([N+](=O)[O-])c1)c1ccc2nc[nH]c2c1` the “hERG current change (%, negative = inhibition) at 10uM” value was 22.6%.
With `COc1ccc(CCNC(=S)NC(=O)c2c(-c3ccccc3Cl)noc2C)cc1OC` the “hERG current change (%, negative = inhibition) at 10uM” value was 0.196%.
`CC(=O)Nc1ccc(NC(=O)C(C)NC(C)c2cccc3ccccc23)cc1` (stereo not shown) was tested, and the “hERG current change (%, negative = inhibition) at 10uM” value was 9.12%.
For `COc1ccc(NC(=O)OCC(C)C)cc1OC`, the “hERG current change (%, negative = inhibition) at 10uM” value was 15.9%.
For `Cc1ccc(S(=O)(=O)NC(C(=O)Oc2cc3oc(=O)cc(C)c3cc2Cl)C(C)C)cc1` (stereo not shown), the “hERG current change (%, negative = inhibition) at 10uM” value was -34.3%.
In the case of `c1ccc(-c2oc3ncnc(NCCN4CCOCC4)c3c2-c2ccccc2)cc1`, the “hERG current change (%, negative = inhibition) at 10uM” value was -21.3%.
`CC1CCCN(CCCNC(=O)CCn2nc(-c3ccccc3)ccc2=O)C1` (stereo not shown) was tested, and the “hERG current change (%, negative = inhibition) at 10uM” value was -39%.
For `CN(C1=C(NC(=O)c2ccccc2)C(=O)c2ccccc2C1=O)C1CCS(=O)(=O)C1` (stereo not shown), the “hERG current change (%, negative = inhibition) at 10uM” value was -38.2%.
`Cc1cccc(-c2nnc(SCc3ccc(C#N)cc3)n2Cc2ccco2)c1` was tested, and the “hERG current change (%, negative = inhibition) at 10uM” value was -89%.
In the case of `CCOc1ccc(NC(=O)CCC(=O)c2ccc(OC)cc2)cc1`, the “hERG current change (%, negative = inhibition) at 10uM” value was 4.05%.
For `COc1ccc(S(=O)(=O)NC(C)C)cc1C(=O)NC1CCCCC1`, the “hERG current change (%, negative = inhibition) at 10uM” value was 6.82%.
In the case of `Cc1ccnc(N2CCC(C(=O)NNC(=O)c3ccncc3)CC2)n1`, the “hERG current change (%, negative = inhibition) at 10uM” value was 10.5%.
With `Cc1cccc(N(CC(=O)NC2CCCCC2)C(=O)CCC(=O)Nc2ccccn2)c1` the “hERG current change (%, negative = inhibition) at 10uM” value was 9.74%.
With `OCCN1CCOCCOCCN(CCO)CCN(CCO)CC1` the “hERG current change (%, negative = inhibition) at 10uM” value was 20.6%.
With `[O-][n+]1onc2c1CCc1[nH]c(-c3ccccc3)nc1-2` the “hERG current change (%, negative = inhibition) at 10uM” value was 35.7%.
`O=C(Nc1cccc2cccnc12)c1ccc(Br)o1` was tested, and the “hERG current change (%, negative = inhibition) at 10uM” value was -12.3%.
With `O=[N+]([O-])c1cc(Br)c(O)c(C=Nc2ccc(N3CCOCC3)cc2)c1` the “hERG current change (%, negative = inhibition) at 10uM” value was 13.6%.
With `COc1cccc(N(CC(=O)NC2CCCC2)C(=O)CCC(=O)Nc2nccs2)c1` the “hERG current change (%, negative = inhibition) at 10uM” value was 10.7%.
In the case of `COc1cc([N+](=O)[O-])cc(/C=N/NC(=O)C(C)Nc2cccc3ccccc23)c1O` (stereo not shown), the “hERG current change (%, negative = inhibition) at 10uM” value was 48.9%.
For `CC(=O)N1c2ccccc2[C@@H](C)[C@@H]1C`, the “hERG current change (%, negative = inhibition) at 10uM” value was 1.84%.
With `COCCn1c(COC)nc2ccccc21` the “hERG current change (%, negative = inhibition) at 10uM” value was 5.1%.
With `COc1cc(C#Cc2c(-c3ccccc3)n(C)c3ccccc23)cc(OC)c1` the “hERG current change (%, negative = inhibition) at 10uM” value was 2.18%.
With `CCCCCCc1cc2cc(S(=O)(=O)c3ccc(F)cc3)c(=O)oc2cc1O` the “hERG current change (%, negative = inhibition) at 10uM” value was 1.78%.
With `CC(=O)OC[C@H]1O[C@@H](n2ccc(=O)[nH]c2=S)C(OC(C)=O)C1OC(C)=O` (stereo partly shown) the “hERG current change (%, negative = inhibition) at 10uM” value was -4.01%.
`O=C(NNC(=O)c1cc2ccccc2oc1=O)c1ccccc1` was tested, and the “hERG current change (%, negative = inhibition) at 10uM” value was -17%.
For `O=C(NCC(c1ccc(F)cc1)N1CCOCC1)c1ccccc1F` (stereo not shown), the “hERG current change (%, negative = inhibition) at 10uM” value was 19.5%.
For `COC(=O)c1ccccc1NC(=O)CN1CCN(C23CC4CC(CC(C4)C2)C3)CC1`, the “hERG current change (%, negative = inhibition) at 10uM” value was -77.5%.
For `CCN(CC)C(=O)C1CCCN(c2ccc([N+](=O)[O-])cc2/C=N/NC(=O)c2cccc([N+](=O)[O-])c2)C1` (stereo not shown), the “hERG current change (%, negative = inhibition) at 10uM” value was -55.3%.
In the case of `Cc1ccc(C(=O)N/C(=C\c2cccs2)C(=O)N2CCOCC2)cc1C`, the “hERG current change (%, negative = inhibition) at 10uM” value was -19%.
With `CCOC(=O)N1CCN(C(=O)c2ccc3c(=O)n(CC4CCCO4)c(=S)[nH]c3c2)CC1` (stereo not shown) the “hERG current change (%, negative = inhibition) at 10uM” value was -5.29%.
For `COc1ccc(C(=O)N2CCN(c3cccc(Cl)c3)CC2)c(OC)c1`, the “hERG current change (%, negative = inhibition) at 10uM” value was -44.6%.
For `COc1ccc(NC(=O)c2ccc3c(c2)NC(=O)CS3)cc1S(=O)(=O)Nc1ccc(Br)cc1`, the “hERG current change (%, negative = inhibition) at 10uM” value was 7.21%.
For `CN(c1ccc(C(=O)N2CCN(c3ccccc3F)CC2)cc1)S(=O)(=O)c1ccccc1`, the “hERG current change (%, negative = inhibition) at 10uM” value was -42.4%.
In the case of `CCOc1ccc(N(Cc2cc3ccc(C)cc3[nH]c2=O)S(=O)(=O)c2ccccc2)cc1`, the “hERG current change (%, negative = inhibition) at 10uM” value was 18.9%.
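Also: peak tail current of the secondary pulse compared with the same well before compound.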
